According to the supplement of paper PMC8728848:
The other results are listed elsewhere or left out.

Assays:
Assay in all cases: glycan array binding signal (z-score within array); higher = stronger binding
Settings in all cases: glycan notation: IUPAC condensed, linker removed
[1] = target: Fuc(a1-2)Gal(b1-4)GlcNAc(b1-2)Man(a1-3)[Fuc(a1-2)Gal(b1-4)GlcNAc(b1-2)Man(a1-6)]Man(b1-4)GlcNAc(b1-4)[Fuc(a1-6)]GlcNAc
Summary of the method: (§1)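 Glycan array data were curated from 3228 arrays in the Consortium for Functional Glycomics database and kept only where the protein sequence was available. Glycan names were converted to IUPAC-condensed notation, and columns mapping to the same glycan were averaged. The binding signal is a within-array Z-score, averaged across arrays of the same protein sequence at different concentrations or buffers and across linkers. Negative Z-scores can be read as non-binding.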

[2] = target: Fuc(a1-2)Gal(b1-4)GlcNAc(b1-2)[Fuc(a1-2)Gal(b1-4)GlcNAc(b1-4)]Man(a1-3)[Fuc(a1-2)Gal(b1-4)GlcNAc(b1-2)Man(a1-6)]Man(b1-4)GlcNAc(b1-4)GlcNAc
Summary of the method: as §1

[3] = target: Fuc(a1-2)Gal(b1-4)GlcNAc(b1-3)Gal(b1-4)GlcNAc
Summary of the method: as §1

[4] = target: Fuc(a1-2)Gal(b1-4)GlcNAc(b1-3)Gal(b1-4)GlcNAc(b1-2)Man(a1-3)[Fuc(a1-2)Gal(b1-4)GlcNAc(b1-3)Gal(b1-4)GlcNAc(b1-2)Man(a1-6)]Man(b1-4)GlcNAc(b1-4)GlcNAc
Summary of the method: as §1

[5] = target: Fuc(a1-2)Gal(b1-4)GlcNAc(b1-3)Gal(b1-4)GlcNAc(b1-3)Gal(b1-4)GlcNAc
Summary of the method: as §1

[6] = target: Fuc(a1-2)Gal(b1-4)GlcNAc(b1-3)GalNAc
Summary of the method: as §1

[7] = target: Fuc(a1-2)Gal(b1-4)GlcNAc(b1-3)[Fuc(a1-2)Gal(b1-4)GlcNAc(b1-6)]GalNAc
Summary of the method: as §1

[8] = target: Fuc(a1-2)Gal(b1-4)GlcNAc(b1-3)[Fuc(a1-3)[Gal(b1-4)]GlcNAc(b1-6)]Gal(b1-4)Glc
Summary of the method: as §1

[9] = target: Fuc(a1-2)Gal(b1-4)GlcNAc(b1-6)GalNAc
Summary of the method: as §1

[10] = target: Fuc(a1-2)Gal(b1-4)GlcNAc6S
Summary of the method: as §1

[11] = target: Fuc(a1-2)Gal(b1-4)[Fuc(a1-3)]GalNAc(b1-3)Gal(b1-4)[Fuc(a1-3)]GlcNAc
Summary of the method: as §1

[12] = target: Fuc(a1-2)Gal(b1-4)[Fuc(a1-3)]GalNAc(b1-3)Gal(b1-4)[Fuc(a1-3)]GlcNAc(b1-3)Gal(b1-4)[Fuc(a1-3)]GalNAc
Summary of the method: as §1

[13] = target: Fuc(a1-2)Gal(b1-4)[Fuc(a1-3)]GlcNAc
Summary of the method: as §1

[14] = target: Fuc(a1-2)Gal(b1-4)[Fuc(a1-3)]GlcNAc(b1-2)Man(a1-3)[Fuc(a1-2)Gal(b1-4)[Fuc(a1-3)]GlcNAc(b1-2)Man(a1-6)]Man(b1-4)GlcNAc(b1-4)GlcNAc
Summary of the method: as §1

[15] = target: Fuc(a1-2)Gal(b1-4)[Fuc(a1-3)]GlcNAc(b1-2)Man(a1-3)[Fuc(a1-2)Gal(b1-4)[Fuc(a1-3)]GlcNAc(b1-2)Man(a1-6)]Man(b1-4)GlcNAc(b1-4)[Fuc(a1-6)]GlcNAc
Summary of the method: as §1

[16] = target: Fuc(a1-2)Gal(b1-4)[Fuc(a1-3)]GlcNAc(b1-2)[Fuc(a1-2)Gal(b1-4)[Fuc(a1-3)]GlcNAc(b1-4)]Man(a1-3)[Fuc(a1-2)Gal(b1-4)[Fuc(a1-3)]GlcNAc(b1-2)Man(a1-6)]Man(b1-4)GlcNAc(b1-4)GlcNAc
Summary of the method: as §1

[17] = target: Fuc(a1-2)Gal(b1-4)[Fuc(a1-3)]GlcNAc(b1-3)Gal(b1-4)[Fuc(a1-3)]GlcNAc
Summary of the method: as §1

[18] = target: Fuc(a1-2)Gal(b1-4)[Fuc(a1-3)]GlcNAc(b1-3)Gal(b1-4)[Fuc(a1-3)]GlcNAc(b1-3)Gal(b1-4)[Fuc(a1-3)]GlcNAc
Summary of the method: as §1

[19] = target: Fuc(a1-2)Gal(b1-4)[Fuc(a1-3)]GlcNAc(b1-3)GalNAc
Summary of the method: as §1

[20] = target: Fuc(a1-2)Gal(b1-4)[Fuc(a1-3)]GlcNAc(b1-3)[Neu5Ac(a2-6)Gal(b1-4)GlcNAc(b1-6)]Gal(b1-4)Glc
Summary of the method: as §1

[21] = target: Fuc(a1-2)Gal3S(b1-4)GlcNAc
Summary of the method: as §1

[22] = target: Fuc(a1-2)Gal6S(b1-3)GlcNAc
Summary of the method: as §1

[23] = target: Fuc(a1-2)Gal6S(b1-3)GlcNAc6S
Summary of the method: as §1

[24] = target: Fuc(a1-2)Gal6S(b1-4)Glc
Summary of the method: as §1

[25] = target: Fuc(a1-2)Gal6S(b1-4)Glc6S
Summary of the method: as §1

[26] = target: Fuc(a1-2)Gal6S(b1-4)GlcNAc
Summary of the method: as §1

[27] = target: Fuc(a1-2)GlcNAc
Summary of the method: as §1

[28] = target: Fuc(a1-2)[Gal(a1-3)]Gal
Summary of the method: as §1

[29] = target: Fuc(a1-2)[Gal(a1-3)]Gal(b1-3)GalNAc
Summary of the method: as §1

[30] = target: Fuc(a1-2)[Gal(a1-3)]Gal(b1-3)GalNAc(b1-3)Gal(a1-4)Gal(b1-4)Glc
Summary of the method: as §1

B1: Epa1-NP (Candida glabrata), Q6VBJ0 (protein)
chain: MILNPALFLNKCVCIYTTLILLLLTNGGYATSSNDISLASKDPTTFPLGCSPDITTPKKGLSMELYSYDFRKKGSYPCWDAAYLDPNYPRTGYKSHRLLAKVDGVTGNINFYYHATKGCTPQLGHLPASYNYPKPLTMTNFTMLLYGYFRPKVTGFHTFTISADDLLFVNFGAGNAFDCCRRDSSADHFGNYQAYAIWGSKTAKDELTVHLDAGVYYPIRLFYNNREYDGALSFTFKTESNENTVSDFSEYFFSLDDTEEGCPGLISYDSSCASVKTSKIIGIDYHTETPNENLVPITKTIYHLGIPCTGTTTTPLCGSGFYDPLANKCVTINTSSTSSVTKTTSHTTSKEVSFHSSISSQKTLIPKSIPSPYGPIKSQSIPTEMETSSEISSSEYAFSDVISTPSHSPYTKKHSSLNSSSYTSTVIHSLTSYSISQGIFSTSLSEQNITSKSSTDKFSTATSMSNNITQSSIIISQFSTNNENYTTTSMHTSSDKISTETLNNSISTTTSILFSNSSTILKNNTTIISSDKDTHYHPVNPTIVCSTNKTEIICASITQPSISNSNNHWSSSVLKFNSTTVRSTLPSSAGSNETSINVPFSSSTESNTSTSSTSTSNSKMVRSTLPSSAGSNETSISVPFSSSTESNTSTSSTSTSNSKMVRSTLPSSAGSNETSINVPFSSSTESNTSTSSTSTSNSKTVRSTPFSSAGIIMTSLSQRNNKSASSYASSNSKCYNTADSCRKVHSTPSYLLTSSYTSEGVDYDCSLVSTKLKINDTNCVNNKHTTKSCLKTSVTTTIPTLEIKTARKSSSNTIGLHSYPTSSPNKSISSAPIIGYISSFKTIKTASPSYQTSDLTTITTITSLNNPGSTAVENTHESNDKSRKTSSNDISSKHSVIKETKDAVESSNKSHQTNTLKCSSIIIASSSHNSYESLGGTTLTLTLSKVYSPQNNDTLPFLEISEVNPSRTVLPESSKMMQYLTSTEERNKTARNTIATNIVSISTFHFEGEGNAIRMGYTQLLLMLIGIIVMNIGT
- glycan array binding signal (z-score) [1]: -0.273
- glycan array binding signal (z-score) [2]: -0.29
- glycan array binding signal (z-score) [3]: -0.331
- glycan array binding signal (z-score) [4]: -0.277
- glycan array binding signal (z-score) [5]: -0.345
- glycan array binding signal (z-score) [6]: -0.262
- glycan array binding signal (z-score) [7]: -0.237
- glycan array binding signal (z-score) [8]: -0.283
- glycan array binding signal (z-score) [9]: -0.283
- glycan array binding signal (z-score) [10]: 0.048
- glycan array binding signal (z-score) [11]: -0.555
- glycan array binding signal (z-score) [12]: -0.55
- glycan array binding signal (z-score) [13]: -0.332
- glycan array binding signal (z-score) [14]: 0.119
- glycan array binding signal (z-score) [15]: -0.273
- glycan array binding signal (z-score) [16]: -0.138
- glycan array binding signal (z-score) [17]: -0.292
- glycan array binding signal (z-score) [18]: -0.283
- glycan array binding signal (z-score) [19]: 0.099
- glycan array binding signal (z-score) [20]: -0.277
- glycan array binding signal (z-score) [21]: -0.26
- glycan array binding signal (z-score) [22]: -0.29
- glycan array binding signal (z-score) [23]: -0.253
- glycan array binding signal (z-score) [24]: -0.318
- glycan array binding signal (z-score) [25]: -0.297
- glycan array binding signal (z-score) [26]: -0.179
- glycan array binding signal (z-score) [27]: -0.542
- glycan array binding signal (z-score) [28]: -0.216
- glycan array binding signal (z-score) [29]: -0.251
- glycan array binding signal (z-score) [30]: -0.295
